The other results are listed elsewhere or left out. The full chains were built here from the parent and the listed change. Inactive controls read about 0.05.
B1: TEV protease; numbered along this chain (parent)
chain: MGESLFKGPRDYNPISSSICHLTNESDGHTTSLYGIGFGPFIITNKHLFRRNNGTLVVQSLHGVFKVKDTTTLQQHLVDGRDMIIIRMPKDFPPFPQKLKFREPQREERICLVTTNFQTKSMSSMVSDTSCTFPSGDGIFWKHWIQTKDGQCGSPLVSTRDGFIVGIHSASNFTNTNNYFTSVPKNFMELLTNQEAQQWVSGWRLNADSVLWGGHKVFMVKPEEPFQPVKEATQL

Variants of: B1
Test: raw area under fraction-flipped curve 0-4 h after induction (AUC4h, not background-subtracted), DNA-recorder readout of cleavage of the substrate (dimensionless); higher = more cleavage of the substrate by the protease variant
Conditions: temperature: 34 °C; time window: 0-4 h after rhamnose induction
Procedure: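 In vivo DNA recorder in E. coli TOP10(DE3) ΔrhaA at 34 °C. Each TEVp single-site mutant (parent TEVp 0) is paired with a single-site variant of the 7-mer TEVs (canonical ENLYFQ|S). The substrate sits between flexible linkers in a Bxb1-sfGFP-TEVs-SsrA fusion, so cleavage stabilises Bxb1 and speeds flipping of a recombination array, read by NGS. The value is the raw area under the fraction-flipped curve over 0-4 h after rhamnose induction (AUC4h), with ≥20 reads per time point. It is not background-subtracted; inactive controls average about 0.047.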
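Also: Bxb1 expression induced with 0.2% (w/v) L-rhamnose at OD600 near 0.5, cultures sampled hourly, flipped fraction per protease–substrate barcode pair counted by paired-end Illumina sequencing.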

Row | Variant | area with substrate ENLYFQA | area with substrate ENLYFQD | area with substrate ENLYFQF | area with substrate ENLYFQG | area with substrate ENLYFQI | area with substrate ENLYFQK | area with substrate ENLYFQL | area with substrate ENLYFQM | area with substrate ENLYFQN | area with substrate ENLYFQP | area with substrate ENLYFQR | area with substrate ENLYFQS | area with substrate ENLYFQT | area with substrate ENLYFQW | area with substrate ENLYFQC | area with substrate ENLYFQE | area with substrate ENLYFQH | area with substrate ENLYFQY | area with substrate ENLYFQQ | area with substrate ENLYFQV
1 | MGESLFKGPRDYNPISSSICHLTNESDGHTTSLYGIGFGPFIITNKHLFRRNNGTLVVQSLHGVFKVKDTTTLQQHLVDGRDMIIIRMPKDFPPFPQKLKFREPQREERICLVTTNFQTKSMSSMVSDTSCTFPSGDGIMWKHWIQTKDGQCGSPLVSTRDGFIVGIHSASNFTNTNNYFTSVPKNFMELLTNQEAQQWVSGWRLNADSVLWGGHKVFMVKPEEPFQPVKEATQL [F140M] | 0.0818 | 0.0187 | 0.0272 | 0.11 | 0.0328 | 0.0577 | 0.0638 | 0.0543 | 0.0569 | 0.0372 | 0.062 | 0.0785 | 0.0627 | 0.0539 | – | – | – | – | – | –
2 | MGESLFKGPRDYNPISSSICHLTNESDGHTTSLYGIGFGPFIITNKHLFRRNNGTLVVQSLHGVFKVKDTTTLQQHLVDGRDMIIIRMPKDFPPFPQKLKFREPQREERICLVTTNFQTKSMSSMVSDTSCTFPSGDGIIWKHWIQTKDGQCGSPLVSTRDGFIVGIHSASNFTNTNNYFTSVPKNFMELLTNQEAQQWVSGWRLNADSVLWGGHKVFMVKPEEPFQPVKEATQL [F140I] | 0.0666 | 0.0599 | 0.0468 | 0.068 | 0.0511 | 0.0582 | – | 0.0624 | 0.0692 | 0.052 | 0.0527 | 0.064 | 0.0585 | 0.0643 | 0.0614 | 0.0629 | 0.0569 | 0.0383 | – | –
3 | MGESLFKGPRDYNPISSSICHLTNESDGHTTSLYGIGFGPFIITNKHLFRRNNGTLVVQSLHGVFKVKDTTTLQQHLVDGRDMIIIRMPKDFPPFPQKLKFREPQREERICLVTTNFQTKSMSSMVSDTSCTFPIGDGIFWKHWIQTKDGQCGSPLVSTRDGFIVGIHSASNFTNTNNYFTSVPKNFMELLTNQEAQQWVSGWRLNADSVLWGGHKVFMVKPEEPFQPVKEATQL [S135I] | 0.0929 | – | 0.0507 | – | 0.0592 | 0.0561 | 0.0637 | 0.0508 | 0.0488 | 0.0362 | 0.0592 | 0.0661 | 0.0595 | 0.0399 | 0.0831 | 0.0682 | 0.062 | 0.0554 | 0.075 | 0.0609
4 | MGESLFKGPRDYNPISSSICHLTNESDGHTTSLYGIGFGPFIITNKHLFRRNNGTLVVQSLHGVFKVKDTTTLQQHLVDGRDMIIIRMPKDFPPFPQKLKFREPQREERICLVTTNFQTKSMSSMVSDTSCTFPDGDGIFWKHWIQTKDGQCGSPLVSTRDGFIVGIHSASNFTNTNNYFTSVPKNFMELLTNQEAQQWVSGWRLNADSVLWGGHKVFMVKPEEPFQPVKEATQL [S135D] | 0.0817 | 0.0662 | – | 0.0826 | – | 0.0602 | 0.0457 | 0.0717 | 0.0707 | – | 0.0673 | 0.0975 | 0.0607 | 0.0679 | 0.106 | – | – | 0.0509 | – | –
5 | MGESLFKGPRDYNPISSSICHLTNESDGHTTSLYGIGFGPFIITNKHLFRRNNGTLVVQSLHGVFKVKDTTTLQQHLVDGRDMIIIRMPKDFPPFPQKLKFREPQREERICLVTTNFQTKSMSSMVSDTSCTFPSGDGIFWKHWIQTKDLQCGSPLVSTRDGFIVGIHSASNFTNTNNYFTSVPKNFMELLTNQEAQQWVSGWRLNADSVLWGGHKVFMVKPEEPFQPVKEATQL [G150L] | 0.0528 | 0.0581 | – | 0.0542 | – | 0.0578 | 0.0532 | 0.0583 | 0.0588 | 0.0656 | 0.064 | 0.0589 | 0.0588 | 0.062 | 0.0571 | 0.067 | 0.0641 | – | – | 0.0468
6 | MGESLFKGPRDYNPISSSICHLTNESDGHTTSLYGIGFGPFIITNKHLFRRNNGTLVVQSLHGVFKVKDTTTLQQHLVDGRDMIIIRMPKDFPPFPQKLKFREPQREERICLVTTNFQTKSMSSMVSDTSCTFPSGDGIFWKHWCQTKDGQCGSPLVSTRDGFIVGIHSASNFTNTNNYFTSVPKNFMELLTNQEAQQWVSGWRLNADSVLWGGHKVFMVKPEEPFQPVKEATQL [I145C] | 0.142 | – | – | 0.113 | 0.0628 | 0.0546 | – | 0.109 | 0.104 | – | 0.0587 | 0.137 | – | – | – | – | 0.125 | 0.0882 | – | 0.0688
7 | MGESLFKGPRDYNPISSSICHLTNESDGHTTSLYGIGFGPFIITNKHLFRRNNGTLVVQSLHGVFKVKDTTTLQQHLVDGRDMIIIRMPKDFPPFPQKLKFREPQREERICLVTTNFQTKSMSSMVSDTSCYFPSGDGIFWKHWIQTKDGQCGSPLVSTRDGFIVGIHSASNFTNTNNYFTSVPKNFMELLTNQEAQQWVSGWRLNADSVLWGGHKVFMVKPEEPFQPVKEATQL [T132Y] | 0.0552 | 0.0516 | – | – | 0.0453 | – | – | 0.0626 | 0.0597 | – | 0.0504 | 0.0588 | 0.0567 | 0.0651 | – | – | – | – | – | 0.0504
8 | MGESLFKGPRDYNPISSSICHLTNESDGHTTSLYGIGFGPFIITNKHLFRRNNGTLVVQSLHGVFKVKDTTTLQQHLVDGRDMIIIRMPKDFPPFPQKLKFREPQREERICLVTTNFQTKSMSSMVSDTSCTFPSGDGIFWKHWIQTMDGQCGSPLVSTRDGFIVGIHSASNFTNTNNYFTSVPKNFMELLTNQEAQQWVSGWRLNADSVLWGGHKVFMVKPEEPFQPVKEATQL [K148M] | 0.0823 | – | – | 0.0787 | 0.0597 | 0.0588 | 0.0869 | 0.0962 | – | 0.0731 | 0.063 | 0.107 | 0.0634 | 0.0534 | 0.103 | – | 0.0882 | 0.0789 | – | 0.0676
9 | MGESLFKGPRDYNPISSSICHLTNESDGHTTSLYGIGFGPFIITNKHLFRRNNGTLVVQSLHGVFKVKDTTTLQQHLVDGRDMIIIRMPKDFPPFPQKLKFREPQREERICLVTTNFQTKSMSSMVSDTSCTFPSGDGIFWKHWIQTNDGQCGSPLVSTRDGFIVGIHSASNFTNTNNYFTSVPKNFMELLTNQEAQQWVSGWRLNADSVLWGGHKVFMVKPEEPFQPVKEATQL [K148N] | 0.0808 | – | 0.0654 | 0.0728 | 0.0157 | 0.0555 | 0.0539 | – | 0.0834 | 0.0639 | 0.0399 | 0.0797 | 0.0617 | 0.05 | 0.0826 | – | – | 0.0631 | 0.0553 | 0.0589

Reference: the supplement of paper PMC12217912
